Some of the results follow.
What was measured:
Assay in all cases: glycan array binding signal (z-score within array); higher = stronger binding
Conditions in all cases: glycan notation: IUPAC condensed, linker removed
[1] = molecular target: Gal(b1-4)GlcNAc(b1-2)[Gal(b1-4)GlcNAc(b1-6)]Man(a1-6)[Gal(b1-4)GlcNAc(b1-2)Man(a1-3)]Man(b1-4)GlcNAc(b1-4)[Fuc(a1-6)]GlcNAc
In short: (§1)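 The Consortium for Functional Glycomics database supplied 3228 glycan arrays, of which those lacking an available protein sequence were dropped. The binding signal, a within-array Z-score, was averaged across arrays of the same protein sequence and across linkers. Negative scores can be read as non-binding.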

[2] = molecular target: Gal(b1-4)GlcNAc(b1-2)[Gal(b1-4)GlcNAc(b1-6)]Man(a1-6)[GlcNAc(b1-4)][Gal(b1-4)GlcNAc(b1-2)Man(a1-3)]Man(b1-4)GlcNAc(b1-4)GlcNAc
In short: as §1

[3] = molecular target: Gal(b1-4)GlcNAc(b1-2)[Gal(b1-4)GlcNAc(b1-6)]Man(a1-6)[GlcNAc(b1-4)][Gal(b1-4)GlcNAc(b1-2)[Gal(b1-4)GlcNAc(b1-4)]Man(a1-3)]Man(b1-4)GlcNAc(b1-4)[Fuc(a1-6)]GlcNAc
In short: as §1

[4] = molecular target: Gal(b1-4)GlcNAc(b1-3)Gal(b1-3)GalNAc
In short: as §1

[5] = molecular target: Gal(b1-4)GlcNAc(b1-3)Gal(b1-3)GlcNAc
In short: as §1

[6] = molecular target: Gal(b1-4)GlcNAc(b1-3)Gal(b1-4)Glc
In short: as §1

[7] = molecular target: Gal(b1-4)GlcNAc(b1-3)Gal(b1-4)GlcNAc
In short: as §1

[8] = molecular target: Gal(b1-4)GlcNAc(b1-3)Gal(b1-4)GlcNAc(b1-2)Man(a1-3)[Gal(b1-4)GlcNAc(b1-3)Gal(b1-4)GlcNAc(b1-2)Man(a1-6)]Man(b1-4)GlcNAc(b1-4)GlcNAc
In short: as §1

[9] = molecular target: Gal(b1-4)GlcNAc(b1-3)Gal(b1-4)GlcNAc(b1-2)Man(a1-3)[Gal(b1-4)GlcNAc(b1-3)Gal(b1-4)GlcNAc(b1-2)Man(a1-6)]Man(b1-4)GlcNAc(b1-4)[Fuc(a1-6)]GlcNAc
In short: as §1

[10] = molecular target: Gal(b1-4)GlcNAc(b1-3)Gal(b1-4)GlcNAc(b1-2)[Gal(b1-4)GlcNAc(b1-3)Gal(b1-4)GlcNAc(b1-6)]Man(a1-6)[Gal(b1-4)GlcNAc(b1-3)Gal(b1-4)GlcNAc(b1-2)Man(a1-3)]Man(b1-4)GlcNAc(b1-4)GlcNAc
In short: as §1

[11] = molecular target: Gal(b1-4)GlcNAc(b1-3)Gal(b1-4)GlcNAc(b1-2)[Gal(b1-4)GlcNAc(b1-3)Gal(b1-4)GlcNAc(b1-6)]Man(a1-6)[Gal(b1-4)GlcNAc(b1-3)Gal(b1-4)GlcNAc(b1-2)Man(a1-3)]Man(b1-4)GlcNAc(b1-4)[Fuc(a1-6)]GlcNAc
In short: as §1

[12] = molecular target: Gal(b1-4)GlcNAc(b1-3)Gal(b1-4)GlcNAc(b1-3)Gal(b1-4)GlcNAc
In short: as §1

[13] = molecular target: Gal(b1-4)GlcNAc(b1-3)Gal(b1-4)GlcNAc(b1-3)Gal(b1-4)GlcNAc(b1-2)Man(a1-3)[Gal(b1-4)GlcNAc(b1-3)Gal(b1-4)GlcNAc(b1-3)Gal(b1-4)GlcNAc(b1-2)Man(a1-6)]Man(b1-4)GlcNAc(b1-4)GlcNAc
In short: as §1

[14] = molecular target: Gal(b1-4)GlcNAc(b1-3)Gal(b1-4)GlcNAc(b1-3)Gal(b1-4)GlcNAc(b1-2)Man(a1-3)[Gal(b1-4)GlcNAc(b1-3)Gal(b1-4)GlcNAc(b1-3)Gal(b1-4)GlcNAc(b1-2)Man(a1-6)]Man(b1-4)GlcNAc(b1-4)[Fuc(a1-6)]GlcNAc
In short: as §1

[15] = molecular target: Gal(b1-4)GlcNAc(b1-3)Gal(b1-4)GlcNAc(b1-3)Gal(b1-4)GlcNAc(b1-2)[Gal(b1-4)GlcNAc(b1-3)Gal(b1-4)GlcNAc(b1-3)Gal(b1-4)GlcNAc(b1-6)]Man(a1-6)[Gal(b1-4)GlcNAc(b1-3)Gal(b1-4)GlcNAc(b1-3)Gal(b1-4)GlcNAc(b1-2)Man(a1-3)]Man(b1-4)GlcNAc(b1-4)[Fuc(a1-6)]GlcNAc
In short: as §1

[16] = molecular target: Gal(b1-4)GlcNAc(b1-3)Gal(b1-4)GlcNAc(b1-3)Gal(b1-4)GlcNAc(b1-3)Gal(b1-4)GlcNAc(b1-2)Man(a1-3)[Gal(b1-4)GlcNAc(b1-3)Gal(b1-4)GlcNAc(b1-3)Gal(b1-4)GlcNAc(b1-3)Gal(b1-4)GlcNAc(b1-2)Man(a1-6)]Man(b1-4)GlcNAc(b1-4)GlcNAc
In short: as §1

[17] = molecular target: Gal(b1-4)GlcNAc(b1-3)Gal(b1-4)GlcNAc(b1-3)Gal(b1-4)GlcNAc(b1-3)Gal(b1-4)GlcNAc(b1-2)Man(a1-3)[Gal(b1-4)GlcNAc(b1-3)Gal(b1-4)GlcNAc(b1-3)Gal(b1-4)GlcNAc(b1-3)Gal(b1-4)GlcNAc(b1-2)Man(a1-6)]Man(b1-4)GlcNAc(b1-4)[Fuc(a1-6)]GlcNAc
In short: as §1

[18] = molecular target: Gal(b1-4)GlcNAc(b1-3)Gal(b1-4)GlcNAc(b1-3)Gal(b1-4)GlcNAc(b1-3)Gal(b1-4)GlcNAc(b1-2)[Gal(b1-4)GlcNAc(b1-3)Gal(b1-4)GlcNAc(b1-3)Gal(b1-4)GlcNAc(b1-3)Gal(b1-4)GlcNAc(b1-6)]Man(a1-6)[Gal(b1-4)GlcNAc(b1-3)Gal(b1-4)GlcNAc(b1-3)Gal(b1-4)GlcNAc(b1-3)Gal(b1-4)GlcNAc(b1-2)Man(a1-3)]Man(b1-4)GlcNAc(b1-4)[Fuc(a1-6)]GlcNAc
In short: as §1

[19] = molecular target: Gal(b1-4)GlcNAc(b1-3)Gal(b1-4)GlcNAc(b1-3)Gal(b1-4)GlcNAc(b1-3)Gal(b1-4)GlcNAc(b1-3)Gal(b1-4)GlcNAc(b1-2)Man(a1-3)[Gal(b1-4)GlcNAc(b1-3)Gal(b1-4)GlcNAc(b1-3)Gal(b1-4)GlcNAc(b1-3)Gal(b1-4)GlcNAc(b1-3)Gal(b1-4)GlcNAc(b1-2)Man(a1-6)]Man(b1-4)GlcNAc(b1-4)GlcNAc
In short: as §1

[20] = molecular target: Gal(b1-4)GlcNAc(b1-3)Gal(b1-4)GlcNAc(b1-3)Gal(b1-4)GlcNAc(b1-3)Gal(b1-4)GlcNAc(b1-3)Gal(b1-4)GlcNAc(b1-2)Man(a1-3)[Gal(b1-4)GlcNAc(b1-3)Gal(b1-4)GlcNAc(b1-3)Gal(b1-4)GlcNAc(b1-3)Gal(b1-4)GlcNAc(b1-3)Gal(b1-4)GlcNAc(b1-2)Man(a1-6)]Man(b1-4)GlcNAc(b1-4)[Fuc(a1-6)]GlcNAc
In short: as §1

[21] = molecular target: Gal(b1-4)GlcNAc(b1-3)Gal(b1-4)GlcNAc(b1-3)Gal(b1-4)GlcNAc(b1-3)Gal(b1-4)GlcNAc(b1-3)Gal(b1-4)GlcNAc(b1-2)[Gal(b1-4)GlcNAc(b1-3)Gal(b1-4)GlcNAc(b1-3)Gal(b1-4)GlcNAc(b1-3)Gal(b1-4)GlcNAc(b1-3)Gal(b1-4)GlcNAc(b1-6)]Man(a1-6)[Gal(b1-4)GlcNAc(b1-3)Gal(b1-4)GlcNAc(b1-3)Gal(b1-4)GlcNAc(b1-3)Gal(b1-4)GlcNAc(b1-3)Gal(b1-4)GlcNAc(b1-2)Man(a1-3)]Man(b1-4)GlcNAc(b1-4)[Fuc(a1-6)]GlcNAc
In short: as §1

[22] = molecular target: Gal(b1-4)GlcNAc(b1-3)Gal(b1-4)GlcNAc(b1-3)Gal(b1-4)GlcNAc(b1-3)Gal(b1-4)GlcNAc(b1-3)Gal(b1-4)GlcNAc(b1-3)Gal(b1-4)GlcNAc(b1-2)Man(a1-3)[Gal(b1-4)GlcNAc(b1-3)Gal(b1-4)GlcNAc(b1-3)Gal(b1-4)GlcNAc(b1-3)Gal(b1-4)GlcNAc(b1-3)Gal(b1-4)GlcNAc(b1-3)Gal(b1-4)GlcNAc(b1-2)Man(a1-6)]Man(b1-4)GlcNAc(b1-4)GlcNAc
In short: as §1

[23] = molecular target: Gal(b1-4)GlcNAc(b1-3)Gal(b1-4)GlcNAc(b1-3)GalNAc
In short: as §1

B1: Banana lectin (Musa acuminata) (protein)
chain: MNGAIKVGAWGGNGGSAFDMGPAYRIISVKIFSGDVVDAVDVTFTYYGKTETRHFGGSGGTPHEIVLQEGEYLVGMKGEFGNYHGVVVVGKLGFSTNKKSYGPFGNTGGTPFSLPIAAGKISGFFGRGGDFIDAIGVYLEP
B1 was tested, and the “glycan array binding signal (z-score)” value [1] was -0.147, the “glycan array binding signal (z-score)” value [2] was -0.195 and the “glycan array binding signal (z-score)” value [3] was -0.195. The “glycan array binding signal (z-score)” value [4] was -0.196, the “glycan array binding signal (z-score)” value [5] was -0.194 and the “glycan array binding signal (z-score)” value [6] was -0.193. For the same binder, the “glycan array binding signal (z-score)” value [7] was -0.193, the “glycan array binding signal (z-score)” value [8] was -0.172 and the “glycan array binding signal (z-score)” value [9] was -0.172. For the same binder, the “glycan array binding signal (z-score)” value [10] was -0.144, the “glycan array binding signal (z-score)” value [11] was -0.171 and the “glycan array binding signal (z-score)” value [12] was -0.196. The “glycan array binding signal (z-score)” value [13] was -0.182, the “glycan array binding signal (z-score)” value [14] was -0.182 and the “glycan array binding signal (z-score)” value [15] was -0.169. For the same binder, the “glycan array binding signal (z-score)” value [16] was -0.179, the “glycan array binding signal (z-score)” value [17] was -0.174 and the “glycan array binding signal (z-score)” value [18] was -0.176. For the same binder, the “glycan array binding signal (z-score)” value [19] was -0.162, the “glycan array binding signal (z-score)” value [20] was -0.113 and the “glycan array binding signal (z-score)” value [21] was -0.12. The “glycan array binding signal (z-score)” value [22] was -0.131 and the “glycan array binding signal (z-score)” value [23] was -0.188.

From the supplement of paper PMC8728848
